From the supplement of paper PMC11876631
± gives the standard deviation of the averaged measurements. Laboratory Escherichia coli strains with one amino-acid change in an essential protein, pooled on minimal glucose agar with carbenicillin or gentamicin at twice the control MIC (plus kanamycin and chloramphenicol for the plasmids), 48 h. Fold change of barcode share against drug-free plates; higher = less susceptible. Active = above 20 in both replicates (the paper's putatively resistant). '<' = one read or none on drug, '>' = one read or none on a drug-free plate. Shares are relative, so most strains fall below 1 when a few take over. Listed are strains with at least 15 reads on both drug-free plates, and hits; most hits rest on fewer reference reads. Replicate rank correlation about 0.5. Edits are read from barcodes.

B1: aroC M133D (protein)
chain: MAGNTIGQLFRVTTFGESHGLALGCIVDGVPPGIPLTEADLQHDLDRRRPGTSRYTTQRREPDQVKILSGVFEGVTTGTSIGLLIENTDQRSQDYSAIKDVFRPGHADYTYEQKYGLRDYRGGGRSSARETADRVAAGAIAKKYLAEKFGIEIRGCLTQMGDIPLDIKDWSQVEQNPFFCPDPDKIDALDELMRALKKEGDSIGAKVTVVASGVPAGLGEPVFDRLDADIAHALMSINAVKGVEIGDGFDVVALRGSQNRDEITKDGFQSNHAGGILGGISSGQQIIAHMALKPTSSITVPGRTINRFGEEVEMITKGRHDPCVGIRAVPIAEAMLAIVLMDHLLRQRAQNADVKTDIPRW
B2: lptG I19W (protein)
chain: MQPFGVLDRYIGKTIFTTWMMTLFMLVSLSGIIKFVDQLKKAGQGSYDALGAGMYTLLSVPKDVQIFFPMAALLGALLGLGMLAQRSELVVMQASGFTRMQVALSVMKTAIPLVLLTMAIGEWVAPQGEQMARNYRAQAMYGGSLLSTQQGLWAKDGNNFVYIERVKGDEELGGISIYAFNENRRLQSVRYAATAKFDPEHKVWRLSQVDESDLTNPKQITGSQTVSGTWKTNLTPDKLGVVALDPDALSISGLHNYVKYLKSSGQDAGRYQLNMWSKIFQPLSVAVMMLMALSFIFGPLRSVPMGVRVVTGISFGFVFYVLDQIFGPLTLVYGIPPIIGALLPSASFFLISLWLLMRKS
B3: lptG V64W (protein)
chain: MQPFGVLDRYIGKTIFTTIMMTLFMLVSLSGIIKFVDQLKKAGQGSYDALGAGMYTLLSVPKDWQIFFPMAALLGALLGLGMLAQRSELVVMQASGFTRMQVALSVMKTAIPLVLLTMAIGEWVAPQGEQMARNYRAQAMYGGSLLSTQQGLWAKDGNNFVYIERVKGDEELGGISIYAFNENRRLQSVRYAATAKFDPEHKVWRLSQVDESDLTNPKQITGSQTVSGTWKTNLTPDKLGVVALDPDALSISGLHNYVKYLKSSGQDAGRYQLNMWSKIFQPLSVAVMMLMALSFIFGPLRSVPMGVRVVTGISFGFVFYVLDQIFGPLTLVYGIPPIIGALLPSASFFLISLWLLMRKS
B4: lptG F68D (protein)
chain: MQPFGVLDRYIGKTIFTTIMMTLFMLVSLSGIIKFVDQLKKAGQGSYDALGAGMYTLLSVPKDVQIFDPMAALLGALLGLGMLAQRSELVVMQASGFTRMQVALSVMKTAIPLVLLTMAIGEWVAPQGEQMARNYRAQAMYGGSLLSTQQGLWAKDGNNFVYIERVKGDEELGGISIYAFNENRRLQSVRYAATAKFDPEHKVWRLSQVDESDLTNPKQITGSQTVSGTWKTNLTPDKLGVVALDPDALSISGLHNYVKYLKSSGQDAGRYQLNMWSKIFQPLSVAVMMLMALSFIFGPLRSVPMGVRVVTGISFGFVFYVLDQIFGPLTLVYGIPPIIGALLPSASFFLISLWLLMRKS
B5: lptG V64D (protein)
chain: MQPFGVLDRYIGKTIFTTIMMTLFMLVSLSGIIKFVDQLKKAGQGSYDALGAGMYTLLSVPKDDQIFFPMAALLGALLGLGMLAQRSELVVMQASGFTRMQVALSVMKTAIPLVLLTMAIGEWVAPQGEQMARNYRAQAMYGGSLLSTQQGLWAKDGNNFVYIERVKGDEELGGISIYAFNENRRLQSVRYAATAKFDPEHKVWRLSQVDESDLTNPKQITGSQTVSGTWKTNLTPDKLGVVALDPDALSISGLHNYVKYLKSSGQDAGRYQLNMWSKIFQPLSVAVMMLMALSFIFGPLRSVPMGVRVVTGISFGFVFYVLDQIFGPLTLVYGIPPIIGALLPSASFFLISLWLLMRKS
B6: lptG I19Q (protein)
chain: MQPFGVLDRYIGKTIFTTQMMTLFMLVSLSGIIKFVDQLKKAGQGSYDALGAGMYTLLSVPKDVQIFFPMAALLGALLGLGMLAQRSELVVMQASGFTRMQVALSVMKTAIPLVLLTMAIGEWVAPQGEQMARNYRAQAMYGGSLLSTQQGLWAKDGNNFVYIERVKGDEELGGISIYAFNENRRLQSVRYAATAKFDPEHKVWRLSQVDESDLTNPKQITGSQTVSGTWKTNLTPDKLGVVALDPDALSISGLHNYVKYLKSSGQDAGRYQLNMWSKIFQPLSVAVMMLMALSFIFGPLRSVPMGVRVVTGISFGFVFYVLDQIFGPLTLVYGIPPIIGALLPSASFFLISLWLLMRKS
B7: lptG I19D (protein)
chain: MQPFGVLDRYIGKTIFTTDMMTLFMLVSLSGIIKFVDQLKKAGQGSYDALGAGMYTLLSVPKDVQIFFPMAALLGALLGLGMLAQRSELVVMQASGFTRMQVALSVMKTAIPLVLLTMAIGEWVAPQGEQMARNYRAQAMYGGSLLSTQQGLWAKDGNNFVYIERVKGDEELGGISIYAFNENRRLQSVRYAATAKFDPEHKVWRLSQVDESDLTNPKQITGSQTVSGTWKTNLTPDKLGVVALDPDALSISGLHNYVKYLKSSGQDAGRYQLNMWSKIFQPLSVAVMMLMALSFIFGPLRSVPMGVRVVTGISFGFVFYVLDQIFGPLTLVYGIPPIIGALLPSASFFLISLWLLMRKS
B8: lptG V64A (protein)
chain: MQPFGVLDRYIGKTIFTTIMMTLFMLVSLSGIIKFVDQLKKAGQGSYDALGAGMYTLLSVPKDAQIFFPMAALLGALLGLGMLAQRSELVVMQASGFTRMQVALSVMKTAIPLVLLTMAIGEWVAPQGEQMARNYRAQAMYGGSLLSTQQGLWAKDGNNFVYIERVKGDEELGGISIYAFNENRRLQSVRYAATAKFDPEHKVWRLSQVDESDLTNPKQITGSQTVSGTWKTNLTPDKLGVVALDPDALSISGLHNYVKYLKSSGQDAGRYQLNMWSKIFQPLSVAVMMLMALSFIFGPLRSVPMGVRVVTGISFGFVFYVLDQIFGPLTLVYGIPPIIGALLPSASFFLISLWLLMRKS
B9: lptG F68W (protein)
chain: MQPFGVLDRYIGKTIFTTIMMTLFMLVSLSGIIKFVDQLKKAGQGSYDALGAGMYTLLSVPKDVQIFWPMAALLGALLGLGMLAQRSELVVMQASGFTRMQVALSVMKTAIPLVLLTMAIGEWVAPQGEQMARNYRAQAMYGGSLLSTQQGLWAKDGNNFVYIERVKGDEELGGISIYAFNENRRLQSVRYAATAKFDPEHKVWRLSQVDESDLTNPKQITGSQTVSGTWKTNLTPDKLGVVALDPDALSISGLHNYVKYLKSSGQDAGRYQLNMWSKIFQPLSVAVMMLMALSFIFGPLRSVPMGVRVVTGISFGFVFYVLDQIFGPLTLVYGIPPIIGALLPSASFFLISLWLLMRKS
B10: lptG V64P (protein)
chain: MQPFGVLDRYIGKTIFTTIMMTLFMLVSLSGIIKFVDQLKKAGQGSYDALGAGMYTLLSVPKDPQIFFPMAALLGALLGLGMLAQRSELVVMQASGFTRMQVALSVMKTAIPLVLLTMAIGEWVAPQGEQMARNYRAQAMYGGSLLSTQQGLWAKDGNNFVYIERVKGDEELGGISIYAFNENRRLQSVRYAATAKFDPEHKVWRLSQVDESDLTNPKQITGSQTVSGTWKTNLTPDKLGVVALDPDALSISGLHNYVKYLKSSGQDAGRYQLNMWSKIFQPLSVAVMMLMALSFIFGPLRSVPMGVRVVTGISFGFVFYVLDQIFGPLTLVYGIPPIIGALLPSASFFLISLWLLMRKS
B11: lptG F68Q (protein)
chain: MQPFGVLDRYIGKTIFTTIMMTLFMLVSLSGIIKFVDQLKKAGQGSYDALGAGMYTLLSVPKDVQIFQPMAALLGALLGLGMLAQRSELVVMQASGFTRMQVALSVMKTAIPLVLLTMAIGEWVAPQGEQMARNYRAQAMYGGSLLSTQQGLWAKDGNNFVYIERVKGDEELGGISIYAFNENRRLQSVRYAATAKFDPEHKVWRLSQVDESDLTNPKQITGSQTVSGTWKTNLTPDKLGVVALDPDALSISGLHNYVKYLKSSGQDAGRYQLNMWSKIFQPLSVAVMMLMALSFIFGPLRSVPMGVRVVTGISFGFVFYVLDQIFGPLTLVYGIPPIIGALLPSASFFLISLWLLMRKS
B12: lptG F68A (protein)
chain: MQPFGVLDRYIGKTIFTTIMMTLFMLVSLSGIIKFVDQLKKAGQGSYDALGAGMYTLLSVPKDVQIFAPMAALLGALLGLGMLAQRSELVVMQASGFTRMQVALSVMKTAIPLVLLTMAIGEWVAPQGEQMARNYRAQAMYGGSLLSTQQGLWAKDGNNFVYIERVKGDEELGGISIYAFNENRRLQSVRYAATAKFDPEHKVWRLSQVDESDLTNPKQITGSQTVSGTWKTNLTPDKLGVVALDPDALSISGLHNYVKYLKSSGQDAGRYQLNMWSKIFQPLSVAVMMLMALSFIFGPLRSVPMGVRVVTGISFGFVFYVLDQIFGPLTLVYGIPPIIGALLPSASFFLISLWLLMRKS
B13: lptG V64Q (protein)
chain: MQPFGVLDRYIGKTIFTTIMMTLFMLVSLSGIIKFVDQLKKAGQGSYDALGAGMYTLLSVPKDQQIFFPMAALLGALLGLGMLAQRSELVVMQASGFTRMQVALSVMKTAIPLVLLTMAIGEWVAPQGEQMARNYRAQAMYGGSLLSTQQGLWAKDGNNFVYIERVKGDEELGGISIYAFNENRRLQSVRYAATAKFDPEHKVWRLSQVDESDLTNPKQITGSQTVSGTWKTNLTPDKLGVVALDPDALSISGLHNYVKYLKSSGQDAGRYQLNMWSKIFQPLSVAVMMLMALSFIFGPLRSVPMGVRVVTGISFGFVFYVLDQIFGPLTLVYGIPPIIGALLPSASFFLISLWLLMRKS

target: Escherichia coli (laboratory strain); test: barcode share on antibiotic plates over drug-free plates; higher = less susceptible; conditions: antibiotic: carbenicillin; 2× MIC (3.1 µg/mL)
Procedure: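 A pool of E. coli strains, each edited to carry one amino-acid change in an essential protein, was grown for 48 h on minimal glucose agar with or without antibiotic; strain barcodes were sequenced; mean of two replicates.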

Protein	fold change of barcode share
B1	0.67 ± 0.17
B2	0.594 ± 0.067
B3	0.406 ± 0.12
B4	0.558 ± 0.011
B5	0.44 ± 0.23
B6	0.214 ± 0.077
B7	0.32 ± 0.044
B8	0.495 ± 0.087
B9	0.467 ± 0.13
B10	0.469 ± 0.3
B11	0.576 ± 0.14
B12	0.479 ± 0.17
B13	0.656 ± 0.15

same assay, conditions: antibiotic: gentamicin; 2× MIC (MIC 0.45 µg/mL)

Protein	fold change of barcode share
B1	< 0.00466
B2	< 0.00713
B3	0.00661 ± 0.0017
B4	0.0623 ± 0.08
B5	0.00369 ± 0.0019
B6	< 0.00943
B8	0.0178 ± 0.0046
B9	0.0347 ± 0.037
B10	0.00862 ± 0.003
B11	0.0127 ± 0.0095
B12	0.0381 ± 0.046
B13	0.172 ± 0.23
